# This is one part of the list.
# B1: Epa15 (Candida glabrata) (protein)
# chain: MGSSHHHHHHSSGLVPRGSHMASDPTTFPLGCSPEFTKTKKGLSMELYRYDYLPPGSYPCWDSAYLNPSYPRTGYKAKKLIATVDGVSGDINFKFNPKFGCKAIPDYLPSNFNYHEPITITNFTMILYGYFMPKTTAFHTFYVTADDLLFMNFGAGNAFDCCRREETADKFGNYAAYSVWGKKSLKNELTVYLHTGVYYPIRLFYNNRDYIAQLDIRFKTEHSNAIITNFTDYFYSVDDSSLGCPGLI
# Tests used:
# Experiment in all cases: glycan array binding signal (z-score within array); higher = stronger binding
# Details in all cases: glycan notation: IUPAC condensed, linker removed
# [1] = target: Neu5Ac(a2-6)GalNAc(b1-4)GlcNAc6S
# Method in brief: (§1)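 Columns mapping to the same glycan were averaged after glycan names were converted to IUPAC-condensed notation. The data come from 3228 arrays in the Consortium for Functional Glycomics database, limited to those with an available protein sequence. Binding is reported as a within-array Z-score averaged across arrays of one protein sequence and across linkers.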
# [2] = target: Neu5Ac(a2-6)GlcNAc(b1-4)GlcNAc
# Method in brief: as §1
# [3] = target: Neu5Ac(a2-6)GlcNAc(b1-4)GlcNAc(b1-4)GlcNAc
# Method in brief: as §1
# Neu5Ac(a2-8)Neu5Ac = target: Neu5Ac(a2-8)Neu5Ac
# Method in brief: as §1
# [4] = target: Neu5Ac(a2-8)Neu5Ac(a2-3)Gal(b1-3)GalNAc(b1-4)[Neu5Ac(a2-3)]Gal(b1-4)Glc
# Method in brief: as §1
# [5] = target: Neu5Ac(a2-8)Neu5Ac(a2-3)Gal(b1-3)GalNAc(b1-4)[Neu5Ac(a2-8)Neu5Ac(a2-3)]Gal(b1-4)Glc
# Method in brief: as §1
# [6] = target: Neu5Ac(a2-8)Neu5Ac(a2-3)Gal(b1-4)Glc
# Method in brief: as §1
# [7] = target: Neu5Ac(a2-8)Neu5Ac(a2-3)Gal(b1-4)GlcNAc
# Method in brief: as §1
# [8] = target: Neu5Ac(a2-8)Neu5Ac(a2-3)[Gal(b1-3)GalNAc(b1-4)]Gal(b1-4)Glc
# Method in brief: as §1
# [9] = target: Neu5Ac(a2-8)Neu5Ac(a2-3)[GalNAc(b1-4)]Gal(b1-4)Glc
# Method in brief: as §1
# [10] = target: Neu5Ac(a2-8)Neu5Ac(a2-8)Neu5Ac
# Method in brief: as §1
# [11] = target: Neu5Ac(a2-8)Neu5Ac(a2-8)Neu5Ac(a2-3)Gal(b1-4)Glc
# Method in brief: as §1
# [12] = target: Neu5Ac(a2-8)Neu5Ac(a2-8)Neu5Ac(a2-3)[Gal(b1-3)GalNAc(b1-4)]Gal(b1-4)Glc
# Method in brief: as §1
# [13] = target: Neu5Ac(a2-8)Neu5Ac(a2-8)Neu5Ac(a2-3)[GalNAc(b1-4)]Gal(b1-4)Glc
# Method in brief: as §1
# [14] = target: Neu5Ac(a2-8)Neu5Ac(a2-8)Neu5Ac(a2-8)Neu5Ac(a2-3)[GalNAc(b1-4)]Gal(b1-4)Glc
# Method in brief: as §1
# [15] = target: Neu5Ac(a2-8)Neu5Gc(a2-3)Gal(b1-4)GlcNAc
# Method in brief: as §1
# [16] = target: Neu5Ac(b2-6)Gal(b1-4)GlcNAc
# Method in brief: as §1
# Neu5Ac(b2-6)GalNAc = target: Neu5Ac(b2-6)GalNAc
# Method in brief: as §1
# [17] = target: Neu5Ac9Ac(a2-3)Gal(b1-3)GlcNAc
# Method in brief: as §1
# [18] = target: Neu5Ac9Ac(a2-3)Gal(b1-4)GlcNAc
# Method in brief: as §1
# [19] = target: Neu5Ac9Ac(a2-6)Gal(b1-4)GlcNAc
# Method in brief: as §1
# [20] = target: Neu5Gc(a2-3)Gal(b1-3)GlcNAc
# Method in brief: as §1
# [21] = target: Neu5Gc(a2-3)Gal(b1-3)[Fuc(a1-4)]GlcNAc
# Method in brief: as §1
# Neu5Gc(a2-3)Gal(b1-4)Glc = target: Neu5Gc(a2-3)Gal(b1-4)Glc
# Method in brief: as §1
# [22] = target: Neu5Gc(a2-3)Gal(b1-4)GlcNAc
# Method in brief: as §1
# [23] = target: Neu5Gc(a2-3)Gal(b1-4)GlcNAc(b1-3)Gal(b1-4)GlcNAc(b1-2)Man(a1-3)[Neu5Gc(a2-3)Gal(b1-4)GlcNAc(b1-3)Gal(b1-4)GlcNAc(b1-2)Man(a1-6)]Man(b1-4)GlcNAc(b1-4)GlcNAc
# Method in brief: as §1
# [24] = target: Neu5Gc(a2-3)Gal(b1-4)[Fuc(a1-3)]GlcNAc
# Method in brief: as §1
# [25] = target: Neu5Gc(a2-3)Gal(b1-4)[Fuc(a1-4)]GlcNAc
# Method in brief: as §1
# [26] = target: Neu5Gc(a2-6)Gal(b1-4)GlcNAc
# Method in brief: as §1
# Neu5Gc(a2-6)GalNAc = target: Neu5Gc(a2-6)GalNAc
# Method in brief: as §1
# [27] = target: Neu5Gc(a2-8)Neu5Ac(a2-3)Gal(b1-4)GlcNAc
# Method in brief: as §1
# [28] = target: Neu5Gc(a2-8)Neu5Gc(a2-3)Gal(b1-4)GlcNAc
# Method in brief: as §1
# [29] = target: Neu5Gc(a2-8)Neu5Gc(a2-3)Gal(b1-4)GlcNAc(b1-3)Gal(b1-4)GlcNAc
# Method in brief: as §1
# [30] = target: Neu5Gc(a2-8)Neu5Gc(a2-6)Gal(b1-4)GlcNAc
# Method in brief: as §1
# [31] = target: Neu5Gc(b2-6)Gal(b1-4)GlcNAc
# Method in brief: as §1
binder,measurement,setting,value
B1,glycan array binding signal (z-score),[1],-0.152
same,glycan array binding signal (z-score),[2],-0.526
same,glycan array binding signal (z-score),[3],-0.583
same,glycan array binding signal (z-score),Neu5Ac(a2-8)Neu5Ac,-0.571
same,glycan array binding signal (z-score),[4],-0.457
same,glycan array binding signal (z-score),[5],1.19
same,glycan array binding signal (z-score),[6],-0.433
same,glycan array binding signal (z-score),[7],-0.538
same,glycan array binding signal (z-score),[8],0.235
same,glycan array binding signal (z-score),[9],0.262
same,glycan array binding signal (z-score),[10],-0.233
same,glycan array binding signal (z-score),[11],-0.382
same,glycan array binding signal (z-score),[12],-0.09
same,glycan array binding signal (z-score),[13],0.076
same,glycan array binding signal (z-score),[14],-0.236
same,glycan array binding signal (z-score),[15],-0.727
same,glycan array binding signal (z-score),[16],0.301
same,glycan array binding signal (z-score),Neu5Ac(b2-6)GalNAc,-0.535
same,glycan array binding signal (z-score),[17],-0.641
same,glycan array binding signal (z-score),[18],-0.483
same,glycan array binding signal (z-score),[19],-0.438
same,glycan array binding signal (z-score),[20],-0.414
same,glycan array binding signal (z-score),[21],-0.346
same,glycan array binding signal (z-score),Neu5Gc(a2-3)Gal(b1-4)Glc,-0.302
same,glycan array binding signal (z-score),[22],-0.437
same,glycan array binding signal (z-score),[23],-0.282
same,glycan array binding signal (z-score),[24],-0.295
same,glycan array binding signal (z-score),[25],-0.275
same,glycan array binding signal (z-score),[26],-0.258
same,glycan array binding signal (z-score),Neu5Gc(a2-6)GalNAc,-0.336
same,glycan array binding signal (z-score),[27],-0.511
same,glycan array binding signal (z-score),[28],-0.346
same,glycan array binding signal (z-score),[29],-0.637
same,glycan array binding signal (z-score),[30],-0.395
same,glycan array binding signal (z-score),[31],0.338

# Reference: the supplement of paper PMC8728848
